Data reported in US20210340208A1 (ANWITA BIOSCIENCES, published 2021).

Legend:
IL-2Rα-Fc fusion protein = target: T1, IL-2Rα-Fc fusion protein (human, UniProt P01589 22-240); experiment: BLI (Octet RED96), IL-2Rα-Fc on AHC biosensor, global fit
T1 construct: also called human IL-2Rα (CD25); CD25; not shown: Fc part and any linker are not described; captured on an anti-human IgG Fc sensor
T1 sequence: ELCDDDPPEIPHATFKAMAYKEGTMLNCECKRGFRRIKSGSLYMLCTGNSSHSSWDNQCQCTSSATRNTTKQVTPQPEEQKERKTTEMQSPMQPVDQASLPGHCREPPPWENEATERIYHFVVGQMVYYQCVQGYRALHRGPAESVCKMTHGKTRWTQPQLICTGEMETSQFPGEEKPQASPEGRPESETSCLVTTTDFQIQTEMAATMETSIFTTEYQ
Method: OCTET® RED96 was used to characterize the interactions of a wild-type hIL-2 and hIL-2 muteins with a human IL-2Rα (CD25). Briefly, an IL-2Rα-Fc fusion protein was loaded onto an anti-human IgG Fc capture (AHC) biosensor. The biosensor was then dipped into a solution containing a wild-type hIL-2 (WT IL-2) or an IL-2 mutein at various concentrations. Primary experimental data was analyzed with global fitting to determine a binding affinity (Kd).

human CD122-Fc (AbroBio) = target: T2, human CD122-Fc (AbroBio) (human, UniProt P14784 27-239); experiment: BLI (Octet RED96), CD122-Fc on AHC sensor, 400 nM hIL-2 polypeptide
T2 construct: also called IL-2Rβ; not shown: Fc part and any linker of the bought protein are not described; captured on an anti-human Fc sensor
T2 sequence: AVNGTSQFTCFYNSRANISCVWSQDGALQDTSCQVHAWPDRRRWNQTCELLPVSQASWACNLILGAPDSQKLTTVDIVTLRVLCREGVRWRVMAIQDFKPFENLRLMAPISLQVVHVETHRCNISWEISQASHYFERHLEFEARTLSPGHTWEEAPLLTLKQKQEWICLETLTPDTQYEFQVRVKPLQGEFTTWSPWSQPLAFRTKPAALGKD
Method: OCTET® RED96 was used to characterize the interactions of a human CD122-Fc (AbroBio) with a wild-type hIL-2 and hIL-2 muteins. Briefly, an anti-human Fc sensor (AHC) loaded with the human CD122 was dip into 400 nM of an hIL-2 polypeptide. The binding signaling of fusion protein A1 was normalized to 1.

- Kd (IL-2Rα-Fc fusion protein): 21 nM
- CD122 Binding Response (A1 normalized to 1) (human CD122-Fc (AbroBio)): 1
B1: hIL-2-anti-HSA A1 (ligand)
chain: [letters of about 150 residues not shown]GSGGSGGSGGSGEVQLVESGGGLVQPGGSLRLSCAASGSTWSINTLAWYRQAPGKQRDLVARISSGGSTYYADSVKGRFTISRDNSKNTLYLQMNSLRAEDTAVYYCYAQSTWYPPSWGQGTLVTVSS
notes: C-terminus fused by a peptide linker to an anti-HSA VHH; made in ExpiCHO cells; also called fusion protein A1; hIL-2 mutein (C125S)
